Measured values reported in ChEMBL document CHEMBL1201862, “PubChem BioAssay data set” (2004).
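Protocol summary: plate cells (96-well), add compound at 5 concentrations, incubate 48 h, interpolate endpoints linearly. Here, GI50 denotes the concentration required for 50% inhibition of growth.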 Activity calls are given as the source filed them. Rule as the data show it: active = GI50 up to about 1.1 µM and inactive = higher.

Legend:
Assay in all cases: NCI tumour cell line growth inhibition, 48 h
[1] = test system: 786-0
[2] = test system: A498
[3] = test system: A549
[4] = test system: ACHN
[5] = test system: CAKI-1
[6] = test system: CCRF-CEM
[7] = test system: COLO 205
[8] = test system: DU-145
[9] = test system: EKVX
[10] = test system: HCC 2998
[11] = test system: HCT-15
[12] = test system: HL-60
[13] = test system: HOP-62
[14] = test system: HOP-92
[15] = test system: HT-29
[16] = test system: Hs-578T
[17] = test system: IGROV-1
[18] = test system: K562
[19] = test system: KM12
[20] = test system: LOX IMVI
[21] = test system: M14
[22] = test system: MCF7
[23] = test system: MDA-MB-231
[24] = test system: MDA-MB-435
[25] = test system: MOLT-4
[26] = test system: Malme-3M
[27] = test system: NCI-H226
[28] = test system: NCI-H23
[29] = test system: NCI-H460
[30] = test system: NCI-H522
[31] = test system: NCI/ADR-RES
[32] = test system: OVCAR-3
[33] = test system: OVCAR-4
[34] = test system: OVCAR-5
[35] = test system: PC-3
[36] = test system: RPMI-8226
[37] = test system: SF-268
[38] = test system: SF-295
[39] = test system: SF-539
[40] = test system: SK-MEL-28
[41] = test system: SK-MEL-2
[42] = test system: SK-MEL-5
[43] = test system: SK-OV-3
[44] = test system: SNB-75
[45] = test system: SW-620
[46] = test system: T47D
[47] = test system: TK-10
[48] = test system: U-251
[49] = test system: UACC-62
[50] = test system: UO-31

## COc1cc2c(cc1OC)-c1[nH]c3ccccc3c1CC(=O)N2
[1]
  GI50: inactive: 42.4 µM
[2]
  GI50: inactive: 30.6 µM
[3]
  GI50: inactive: 31.9 µM
[4]
  GI50: inactive: 22.5 µM
[5]
  GI50: inactive: 19.4 µM
[6]
  GI50: inactive: > 100 µM
[7]
  GI50: inactive: 20.9 µM
[8]
  GI50: inactive: 50 µM
[9]
  GI50: inactive: 21 µM
[10]
  GI50: inactive: 27.7 µM
[11]
  GI50: 33.5 µM
[12]
  GI50: inactive: > 100 µM
[13]
  GI50: inactive: 40.3 µM
[14]
  GI50: inactive: > 100 µM
[15]
  GI50: inactive: 24.9 µM
[16]
  GI50: active: 0.622 µM
[17]
  GI50: inactive: 7.19 µM
[18]
  GI50: inactive: 79.3 µM
[19]
  GI50: inactive: 20.7 µM
[20]
  GI50: inactive: 26.1 µM
[21]
  GI50: inactive: 37.3 µM
[22]
  GI50: inactive: 39.4 µM
[23]
  GI50: inactive: 70.3 µM
[24]
  GI50: inactive: 24.2 µM
[25]
  GI50: inactive: 36.6 µM
[26]
  GI50: inactive: 31.2 µM
[27]
  GI50: inactive: 26.6 µM
[28]
  GI50: inactive: 19 µM
[29]
  GI50: inactive: 27.7 µM
[30]
  GI50: inactive: 20.6 µM
[31]
  GI50: inactive: 23.2 µM
[32]
  GI50: inactive: 25.6 µM
[33]
  GI50: inactive: 65 µM
[34]
  GI50: inactive: 54.2 µM
[35]
  GI50: inactive: 29.9 µM
[36]
  GI50: inactive: 48.9 µM
[37]
  GI50: inactive: 52.2 µM
[38]
  GI50: inactive: 35.5 µM
[39]
  GI50: inactive: 26.4 µM
[40]
  GI50: inactive: 31.2 µM
[41]
  GI50: inactive: 31.8 µM
[42]
  GI50: inactive: 28.4 µM
[43]
  GI50: inactive: 47.1 µM
[44]
  GI50: inactive: 11.8 µM
[45]
  GI50: inactive: 59 µM
[46]
  GI50: inactive: 71.9 µM
[47]
  GI50: inactive: 59.4 µM
[48]
  GI50: inactive: 49.4 µM
[49]
  GI50: inactive: 27.4 µM
[50]
  GI50: inactive: 21.9 µM
